# PubChem BioAssay AID1347073 (National Center for Advancing Translational Sciences (NCATS), 2019)
# The whole screen tested about 45,000 compounds, of which about 200 (0.44%) were called active. Another 7% or so got no clear call; they are omitted. Calls come from the whole dose curve; as a rule, active = well fitted activation curve with a large enough effect; inconclusive = small, poorly fitted or top-dose-only effect; inactive = no such curve, though single readings can be large or run the other way. The list shows a part of the results.
# Assay: qHTS of TDP-43 Inhibitors: NCGC Sytravon Library Screen; note: nearly all actives have a fitted effect of over 55% in size; for growth rescue (activation): 0% is about no effect
# Conditions: yeast TDP-43 toxicity rescue, BacTiter-Glo growth, 24 h; series mostly up to 46.1 µM; growth rescue (activation): at the top concentration
# How it was run: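 TDP-43-expressing yeast, pregrown in raffinose, seeded at OD600 0.02 in galactose medium with compound for 24 hr at 30 deg C. Growth read by BacTiter-Glo luminescence, so rescue of toxicity appears as activation.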
# Potency is the fitted concentration of half-maximal effect.
Structure (SMILES),growth rescue (activation),Potency
Cc1ccc(NC(=O)COC(=O)C2COc3ccccc3O2)cc1S(=O)(=O)N1CCOCC1 (configuration not stated),inactive: -9.95%,–
Cc1ccc(NC(=O)CCSCCc2ccccn2)cc1,inactive: 5.86%,–
Cc1ccc(CC2CC(=O)N(Cc3ccco3)C2=O)cc1 (configuration not stated),inactive: 28.4%,–
CC(C)C(OC(=O)c1nsc(Cl)c1Cl)C(=O)NC(C)(C)C (configuration not stated),inactive: 11.5%,–
Cn1c(N)c(C(=O)COC(=O)c2ccc([N+](=O)[O-])o2)c(=O)n(C)c1=O,inactive: -20.1%,–
COc1ccc(Cl)cc1N(C(=O)c1ccco1)C(C(=O)NC1CCCC1)c1cccnc1 (configuration not stated),inactive: -0.725%,–
COCOc1cccc(CN2CCC(C)(Oc3cccc(C#N)c3)C2)c1 (configuration not stated),inactive: -0.58%,–
CC(C)c1ccc(NC(=O)N2CCCC2C(=O)Nc2ccc(-n3cnnn3)cc2)cc1 (configuration not stated),inactive: -0.2%,–
COCCNC(=O)C1CCCN(C(=O)c2ccc3c(c2)C(C)(C)CCC3(C)C)CC1 (configuration not stated),inactive: 16.6%,–
COc1cc(NC(=O)c2cccs2)c(C(=O)OCC(=O)NCc2ccco2)cc1OC,inactive: 4.64%,–
Cc1c(CCC(=O)O)c(=O)oc2cc3occ(-c4ccc(Br)cc4)c3cc12,inactive: -4.03%,–
COc1cc(/C=C2\C(=O)ON=C2c2ccccc2)cc(OC)c1OC,–,active: 11.2 µM
Nn1cc(-c2ccccc2)nc1SCC(=O)Nc1cccc(S(N)(=O)=O)c1,inactive: 4.98%,–
O=C(CSc1n[nH]c(-c2ccccc2)n1)NCc1cccc(C(=O)O)c1,inactive: -2.76%,–
COc1ccc(NC(=O)c2ccc(Cn3cc(Cl)cn3)cc2)cc1,inactive: -0.264%,–
CC1=C/C(=C\c2ccc(Br)o2)C(=O)O1,inactive: 7%,–
CCN(CC)CCC#CC(O)(c1ccccc1)C1CCCCC1 (configuration not stated),inactive: 3.56%,–
CC(=O)c1c(C)[nH]c(C(=O)OCC(=O)Nc2cccc(S(=O)(=O)N(C)C)c2)c1C,inactive: 7.44%,–
CCC(=O)N1CCc2cc(Br)cc(S(=O)(=O)N3CCC(C(=O)NC(C)(C)C)CC3)c21,inactive: -7.53%,–
CC(C)CCOP(=O)(c1ccc(N(C)C)cc1)C(O)c1ccccc1 (configuration not stated),inactive: -5.53%,–
C/C(CC(=O)Nc1cc(Cl)ccc1C)=N\NC(N)=O,inactive: 1.81%,–
Cc1ccc(S(=O)(=O)N/N=c2\sc3ccccc3n2C)cc1,inactive: 18%,–

Structure (SMILES),growth rescue (activation),Potency
CCc1ccc2nc(NC(=O)CN3C(=O)NC4(CCCC4)C3=O)sc2c1,inactive: -16.9%,–
Cc1ccc(CNC(=O)COC(=O)c2cnc(C)cn2)cc1,inactive: 8.46%,–
CCOC(=O)C1(Cc2ccc(OC)cc2)CCN(C(=O)CCn2cccn2)CC1,inactive: -7.66%,–
NC(=S)n1[nH]c(-c2ccc([N+](=O)[O-])cc2)c(N=Nc2cccc(Cl)c2)c1=O,inactive: 3.57%,–
CN(CC(=O)NCc1ccccn1)S(=O)(=O)c1ccc2ccccc2c1,inactive: 2.19%,–
COc1ccc(N(CC(=O)N2CCCCCC2)S(=O)(=O)c2ccccc2[N+](=O)[O-])c(OC)c1,inactive: 5.32%,–
CC(NCC(=O)Nc1ccccc1C(=O)NC1CC1)c1cccs1 (configuration not stated),inactive: 3.66%,–
CCOC(=O)C1CCCN(C(=O)c2cccc3ccccc23)C1 (configuration not stated),inactive: 28.7%,–
Cc1onc(-c2c(F)cccc2Cl)c1C(=O)NCCc1ccncc1,inactive: -0.996%,–
CCOc1ccc(NC(=O)Nc2cc(OCC(F)(F)F)cc(OCC(F)(F)F)c2)cc1,inactive: -8.58%,–
CC1CCCC(NC(=O)C2N(CCCN3CCCC3)C(=O)C3C(C(=O)Nc4ccc(Cl)cc4)C4C=CC32O4)C1C (configuration not stated),inactive: 18.3%,–
Cc1ccc(-c2nc(C)c(C(=O)O)s2)cc1,inactive: 3.83%,–
CCCCC(=O)NC(=S)Nc1cccc(NC(=O)c2ccco2)c1,inactive: 0.787%,–
COc1cccc(/C=N/NC(=O)CC(C)O)c1OC/C=C/c1ccccc1 (configuration not stated),inactive: -5.99%,–
c1ccc(OCCNc2ccn3nc(-c4ccccc4)cc3n2)cc1,inactive: 12.2%,–
CC(Oc1ccc(Cl)cc1Cl)C(=O)NNC(=O)C(=O)N1CCCC1 (configuration not stated),inactive: 8.02%,–
O=C(CN(C(=O)CNC(=O)c1cccs1)c1ccccc1F)NC1CCCCC1,inactive: -21.6%,–
COc1cc(OC)c(OC)cc1CNC(=O)c1ccc(COc2ccccc2)cc1,inactive: 14.6%,–
CN1CCN(/N=C/c2nc(-c3ccccc3)n3ccccc23)CC1,inactive: -11.7%,–
CN(C)c1ccc(NC(=O)c2ccc(Cn3cc([N+](=O)[O-])cn3)cc2)cc1,inactive: 4.07%,–
CN(C)c1ccc(NC(=O)COC(=O)c2cc(Cl)ccc2[N+](=O)[O-])cc1,inactive: 22.5%,–
C/C(=N/NC(=O)CNC(=O)Cc1ccccc1)c1ccc(Cl)cc1,inactive: 8.49%,–

Structure (SMILES),growth rescue (activation),Potency
CC(C)Oc1ccc(C(=O)NCCCNC(=O)c2ccccn2)cc1,inactive: -8.69%,–
CCc1cc(C(=O)COc2ccc(F)cc2)c(O)cc1O,inactive: 16.2%,–
COc1ccc(C(=O)Cn2cnc3ccccc3c2=O)cc1,inactive: -34.7%,–
COc1cc(NC(=O)COC(=O)CC(NC(C)=O)c2ccccc2)cc(OC)c1 (configuration not stated),inactive: -5.58%,–
COCCCn1c(=N)c(C(N)=S)cc2c(=O)n3cccc(C)c3nc21,inactive: 24.8%,–
CC(c1ccccc1)N1C(=O)C2C3CCC(C3)C2C1=O (configuration not stated),inactive: 24.2%,–
COc1cc(OC)c(OC)cc1CNc1nnnn1C,inactive: -1.04%,–
Cc1ccc(N2CC(C(=O)NC3CC3)CC2=O)cc1 (configuration not stated),inactive: -0.971%,–
CC(C)c1ccccc1NS(=O)(=O)c1cccs1,inactive: 21.6%,–
O=C(CSc1nnc(-c2ccc(O)cc2)o1)NNC(=O)c1ccncc1,inactive: 5.05%,–
CCOC(=O)N1CCN(C(=O)c2ccccc2NC(=O)c2ccccc2Cl)CC1,inactive: 9.57%,–
COc1ccc(Cc2nc3ccc(C(=O)NCC4COCCO4)cc3o2)cc1 (configuration not stated),inactive: -20.6%,–
CC(=O)Nc1ccc(NC(=O)C(C)OC(=O)c2ccc(S(=O)(=O)N3CCCCCC3)cc2)cc1 (configuration not stated),inactive: -11.7%,–
N#Cc1ccccc1NC(=O)COC(=O)c1ccc(F)cc1F,inactive: -1.44%,–
O=C(Nc1ccccc1N1CCOCC1)C1(c2ccc(Cl)cc2)CCC1,inactive: 16.2%,–
O=C(/C=C/c1c(Cl)cccc1Cl)NCc1ccco1,inactive: -26.3%,–
Cc1ccc(-n2c(SCC(=O)N/N=C/c3c(C)nn(-c4ccccc4)c3C)nc3ccccc3c2=O)cc1,inactive: 4.47%,–
Cc1cc2cc(C)c(SCC(=O)NCc3ccco3)nc2cc1C,inactive: 18.6%,–
CCOC(=O)N1CCC(NCc2c(C(=O)N(C)Cc3ccccc3)nc3ccccn23)CC1,inactive: 7.45%,–
NNc1nc(Nc2ccccc2)nc(Nc2ccccc2)n1,inactive: 15.6%,–
CC(=O)Nc1cccc(NC(=O)Nc2cccc(Cl)c2C)c1,inactive: 8.84%,–
CCOc1ccc(CNC(=O)C2CCN(c3nnc(-n4cccc4CNc4ccc(C)cc4)s3)CC2)cc1OC,inactive: 5.13%,–

Structure (SMILES),growth rescue (activation),Potency
COc1cc(/C=C2\SC(N3CCCCC3)=NC2=O)cc(OC)c1OC,inactive: 8.9%,–
CCc1c(C)nc(SCC(=O)N2CCN(c3ccccc3OC)CC2)[nH]c1=O,–,inactive
O=C(CCCOc1ccc(Cl)cc1Cl)Nc1ccccc1C(=O)O,inactive: 4.69%,–
O=C(CCc1ccccc1)Nc1nn[nH]n1,inactive: 11.4%,–
CN1CCN(C(=O)CCc2ccc(S(=O)(=O)NC3CCCCC3)cc2)CC1,inactive: 4.51%,–
CCOCC(=O)Nc1ccccc1C(=O)N1CCOCC1,inactive: 0.761%,–
Cn1c(SCC(=O)Nc2cc(C(C)(C)C)nn2-c2ccccc2)nc2ccccc21,inactive: 25.8%,–
CC(=O)Nc1ccc2c(c1)C(=O)N(c1cccc(C)c1)C2=O,inactive: 29.9%,–
COc1ccc(NC(=O)CN2C(=O)NC3(CCCC3)C2=O)cc1Cl,inactive: 7.7%,–
Cc1cc2c(cc(C(=O)OC(C)C(=O)NCc3ccccc3)n2C)o1 (configuration not stated),inactive: 5.91%,–
C=CCc1cccc(CNc2c(C)cc(C)cc2C)c1O,inactive: 1.53%,–
O=C(/C=C/c1ccccc1)OCc1cncs1,inactive: 8.67%,–
Cc1ccc2c(=O)cc(C(=O)NCCc3ccc(S(N)(=O)=O)cc3)oc2c1C,inactive: 4.9%,–
COc1ccc(C(C)(C)C)cc1NC(=O)c1ccc2c(c1)SC1=NS(=O)(=O)CCN12,inactive: 1.28%,–
C=CCNc1scc(-c2ccccc2)[n+]1CC=C,inactive: 8.08%,–
COc1ccc(OC)c(C2=Nn3c(nnc3-c3ccncc3)SC2)c1,inactive: 25.8%,–
CCOc1ccc(OCC(O)CN2CCN(S(=O)(=O)c3cccc(C(F)(F)F)c3)CC2)cc1 (configuration not stated),inactive: 1.72%,–
CCC1CCC(C(=O)NC(CCSC)C(=O)NCCN(CC(C)C)CC(C)C)CC1 (configuration not stated),inactive: -6.31%,–
Cc1nonc1NC(=O)CSc1ccccn1,inactive: -3.3%,–
O=C(NC1CCCC1)C(c1ccncc1)N(C(=O)c1csnn1)c1cccc(Cl)c1 (configuration not stated),inactive: 7.01%,–
CCN(CC)S(=O)(=O)c1ccc(N2CCCCC2)c(NC(=O)/C=C/c2ccc(OC)c(OC)c2)c1,inactive: 28.6%,–
CNC(=S)Nc1ccc([N+](=O)[O-])cc1C,inactive: 3.18%,–

Structure (SMILES),growth rescue (activation),Potency
Cc1cc(NS(=O)(=O)c2ccc(NC(=O)CCc3ccccc3)cc2)no1,inactive: -1.21%,–
Cc1ccc2c(C(=O)CSc3ccccc3)c(C)[nH]c2c1,inactive: 14.7%,–
Cc1cccc(-c2nnc(SCC(=O)NC3CCCC3)o2)c1,inactive: 4.04%,–
Cc1ccc(/C=C(\NC(=O)c2ccccc2)C(=O)NC(Cc2ccccc2)C(=O)O)cc1 (configuration not stated),inactive: -5.54%,–
Cc1nc2c(-c3ccc(Cl)cc3)c(C)[nH]n2c(=O)c1Cc1ccccc1,inactive: 11.4%,–
Nc1ccc(C(=O)CC(=O)Nc2ccc(Cl)cc2)cc1,inactive: 25.5%,–
Cc1ccc(CS(=O)(=O)c2ncn[nH]2)cc1,inactive: -1.93%,–
COc1ccc(NS(=O)(=O)c2cccc(NC(=O)c3cnccn3)c2)cc1Br,inactive: -0.396%,–
CCCCOc1ccc(C(=O)OCC(=O)N2CCOCC2)cc1,inactive: -21.3%,–
C=CCNc1nc(N)c([N+](=O)[O-])c(NCc2ccccc2)n1,inactive: 20.9%,–
O=C(O)/C=C/c1cccc(OCc2ccccc2)c1,inactive: -6.42%,–
COc1ccc(Br)cc1/C=N/NC(=O)c1cccc(S(=O)(=O)N2CCOCC2)c1,inactive: 0.922%,–
CCN(CC)c1ccc(/C=N/NC(=O)c2ccoc2C)cc1,inactive: 11.7%,–
O=C(O)C1C(C(=O)O)C1(c1ccccc1)c1ccccc1 (configuration not stated),inactive: 14.3%,–
CN(C(=O)COC(=O)c1ccc2ccccc2n1)c1ccccc1,inactive: -5.71%,–
CC1CC(C)CN(C(C)C(=O)Nc2cc(S(=O)(=O)N3CCCCC3)ccc2Cl)C1 (configuration not stated),inactive: -17.5%,–
Cn1c(SCC(=O)N2c3ccccc3CCc3ccccc32)nnc1-c1cc2ccccc2cc1O,inactive: -11.2%,–
N#Cc1c(NC(=O)c2cccc(S(=O)(=O)Nc3ccc(C(=O)O)cc3)c2)sc2c1CCCC2,inactive: 6.91%,–
COc1ccccc1NS(=O)(=O)c1cc(NC(=O)c2cc(F)c(F)c(F)c2F)ccc1N1CCOCC1,inactive: 3.69%,–
